Measured values published in PubChem BioAssay AID588795 (National Center for Advancing Translational Sciences (NCATS), 2011).
Among all 390,000 compounds or so, about 1,400 (0.36%) were called active. Inconclusive results, whose numbers are uncertain, are shown with a selection of clear calls. Calls come from the whole dose curve; as a rule, active = well fitted inhibition curve with a large enough effect; inconclusive = small, poorly fitted or top-dose-only effect; inactive = no such curve, though single readings can be large or run the other way. Potencies beside an inconclusive call are fits to weak or partial responses and may not hold up.

Molecular target: Flap endonuclease 1 (Homo sapiens) (UniProt P39748)
Sequence of UniProt P39748 (P39748 whole entry, looked up): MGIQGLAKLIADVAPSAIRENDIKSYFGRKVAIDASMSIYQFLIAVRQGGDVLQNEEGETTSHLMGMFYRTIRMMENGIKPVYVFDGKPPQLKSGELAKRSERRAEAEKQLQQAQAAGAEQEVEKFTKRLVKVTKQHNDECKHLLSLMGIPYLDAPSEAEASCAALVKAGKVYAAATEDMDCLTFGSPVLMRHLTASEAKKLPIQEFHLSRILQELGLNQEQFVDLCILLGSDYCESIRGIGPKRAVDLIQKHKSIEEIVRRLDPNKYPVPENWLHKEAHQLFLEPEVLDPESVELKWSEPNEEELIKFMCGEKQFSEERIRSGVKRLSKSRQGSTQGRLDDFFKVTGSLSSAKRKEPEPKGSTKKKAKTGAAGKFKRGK
Test: qHTS Assay for the Inhibitors of Human Flap endonuclease 1 (FEN1). Note: nearly all actives have a fitted effect of over 65% in size.
Details: Recombinant FEN1 flap cleavage, fluorescence, 15 min; series mostly up to 114 µM
Method in brief: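 FEN1 at 10 nM preincubated with compounds 15 min at room temperature, then flap DNA substrate added at 50 nM final. Signal read at 0 and 15 min; concentration-response fitted with four-parameter Hill equation.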
Potency is the fitted concentration of half-maximal effect; tags give direction and shape of the fitted curve.

SMILES | Potency
O=C(c1cc(Br)ccc1O)N(Cc1ccco1)Cc1cccs1 | inconclusive: 89.1 µM [inhibitor, single point]
Cc1ccccc1/C=C/C1=NCCN1 | inconclusive: 37.7 µM [inhibitor, single point]
O=C(C[C@H]1C/C=C\CC[C@@H](Cc2ccc(F)cc2)C(=O)O[C@@H](c2ccccc2)CNC1=O)N[C@@H](CO)Cc1ccccc1 | inconclusive: 100 µM [inhibitor, single point]
CCOc1ccc2nc(NC(=S)N(C)C)sc2c1 | inactive
CCN(CC)CCCN(C(=O)c1ccco1)c1nc(-c2ccc(Cl)cc2)cs1 | inconclusive: 50.1 µM [inhibitor, partial curve]
NC1(c2ccc(-c3nc4ccn5c(=O)[nH]nc5c4cc3-c3ccccc3)cc2)CCC1 | inconclusive: 56.2 µM [inhibitor, partial curve, poor fit]
O=C(OCc1ccccc1C(F)(F)F)c1ccc(Br)c(S(=O)(=O)N2CCOCC2)c1 | inconclusive: 56.2 µM [inhibitor, partial curve, poor fit]
COc1cc(OC)c2c(=O)c(OC)c(-c3ccc(OC)c(OC)c3)oc2c1 | inconclusive: 79.4 µM [inhibitor, partial curve, poor fit]
COc1ccccc1N1CCN(Cc2cc(Br)c(O)c3ncccc23)CC1 | inconclusive: 25.1 µM [inhibitor, partial curve, poor fit]
COc1ccc(C(=O)N2C(=S)NC(=O)/C2=C\c2ccc(C)cc2)cc1 | inconclusive: 56.2 µM [inhibitor, partial curve]
Cc1ccc(OCC(=O)Nc2ccccc2C(=O)OCc2cc(=O)n3c(C)csc3n2)cc1 | inactive
O=C(O)CCC(=O)Nc1ccc(N2CCCCC2)c(C(=O)O)c1 | inactive
S=C(NCCCc1cnc[nH]1)NCCCN(CCc1ccccc1)c1ccc(Br)cn1 | inconclusive: 79.4 µM [inhibitor, partial curve, poor fit]
Cn1c(=O)c(C(=O)COC(=O)c2cc(C3CC3)nc3ccccc23)c(N)n(Cc2ccccc2)c1=O | inconclusive: 35.5 µM [inhibitor, partial curve, poor fit]
Cc1c(C)c(C)c(/C=C/c2ccnc3ccccc23)c(C)c1C | inactive
CCCCCC(=O)Cc1cc(O)cc2c1C(=O)Oc1cc(O)c(C(=O)O)c(CCCCC)c1O2 | inconclusive: 22.4 µM [inhibitor, full curve]
COc1ccc(N)cc1-n1c(C)ccc1C | inconclusive: 35.5 µM [inhibitor, partial curve, poor fit]
COc1ccc2c(c1)CCc1c-2nc2ccccc2c1N1CCOCC1 | active: 50.1 µM
COc1cc(NC(=O)CSc2nc3nc(C)c(Cc4ccccc4)c(C)n3n2)cc(OC)c1OC | inactive
COc1ccc(C2/C(=C(\O)c3ccc4c(c3)CC(C)O4)C(=O)C(=O)N2Cc2cccnc2)c(OC)c1 (stereo not given) | inconclusive: 79.4 µM [inhibitor, partial curve, poor fit]
COc1ccc(CNC(=O)Cn2nc(C)c3c(C)n(-c4ccc(C)cc4)nc3c2=O)cc1OC | inconclusive: 44.7 µM [inhibitor, partial curve]
COc1ccc(/C=N/NC(=O)c2cc(O)c(O)c(O)c2)cc1Cn1cc([N+](=O)[O-])cn1 | inconclusive: 3.16 µM [inhibitor, full curve, poor fit]

SMILES | Potency
CCOC(=O)c1c(NC(C)=O)sc2c(OCC(O)CN(CC)CC)c(Br)ccc12 (stereo not given) | active: 22.4 µM
O=C(CBr)c1ccc(Oc2ccc(C(=O)C[n+]3ccccc3Cl)cc2)cc1 | inconclusive: 79.4 µM [inhibitor, partial curve]
Cc1cc(N(C)C)c(C)cc1/C=C/c1ccnc2ccccc12 | inactive
Cc1ccc(NC(=O)/C=C\C(=O)O)c([N+](=O)[O-])c1 | inactive
CC(C)(C)c1nn(-c2ccccc2)c2[nH]c(=O)c(CNc3ccc4c(c3)OCCO4)cc12 | inconclusive: 50.1 µM [inhibitor, partial curve, poor fit]
CCc1ccc(CNC(=O)c2sc3ncnc(N(C)C4CCCCC4)c3c2C)cc1 | inactive
COc1ccc(Nc2cc(C)nc3ccc(OC)cc23)cc1 | inconclusive: 50.1 µM [inhibitor, partial curve, poor fit]
O=C(NNc1cc(Cl)cc(Cl)c1)c1sccc1Cl | inactive
CC(C)(C)c1cc[n+](-c2[nH]c(=O)sc2/C=N/N=C(\[O-])c2cccnc2)cc1 | inconclusive: 50.1 µM [inhibitor, partial curve, poor fit]
O=C(Oc1ccc2c(c1)OCO2)c1cc2c(s1)CCC2 | inconclusive: 89.1 µM [inhibitor, single point]
C=CCC[C@@H](Cc1ccc(F)cc1)C(=O)OC[C@H](C)NC(=O)[C@@H](CC=C)CC(=O)N(CCO)Cc1ccccc1 | inconclusive: 79.4 µM [inhibitor, partial curve, poor fit]
O=C1NC(=O)/C(=C/c2ccc(-c3ccc(F)cc3O)o2)S1 | inconclusive: 26.7 µM [inhibitor, partial curve]
N#Cc1c(NC(=O)CSc2ncnc3sccc23)oc(-c2ccco2)c1-c1ccco1 | inconclusive: 56.2 µM [inhibitor, partial curve, poor fit]
Nc1ccccc1C(=O)NNc1c2ccccc2nc2ccccc12 | inconclusive: 15.8 µM [inhibitor, full curve]
CCOC(=O)c1cnc(NCc2ccc(Cl)cc2)c2ccccc12 | inconclusive: 20 µM [inhibitor, partial curve, poor fit]
COc1ccc(-c2oc3ccc(N4CCOCC4)cc3c2C#CC2(O)CCCCC2)cc1 | inconclusive: 89.1 µM [inhibitor, partial curve, poor fit]
COc1ccc(-c2ccc3c(c2)S(=O)(=O)c2cccc(C(=O)NCc4cc(C)oc4C(F)(F)F)c2C3=O)cc1OC | inactive
Cc1ccc2[nH]c3c(NCc4ccco4)ncnc3c2c1 | inconclusive: 70.8 µM [inhibitor, single point]
Cc1nc(Nc2ccc(S(N)(=O)=O)cc2)sc1-c1ccccc1 | inconclusive: 70.8 µM [inhibitor, partial curve, poor fit]
COc1ccc(NC(=O)C2(N(C(=O)Cn3nnnc3N)c3ccc(OC)cc3)CCCCC2)cc1 | inactive
CC1CC=CC2C1C(=O)N(Cc1ccccc1)C2c1ccc(/C=C/c2ccccc2)cc1F (stereo not given) | inactive
O=C(COC(=O)c1cccc(Cl)c1)Nc1cccc(S(=O)(=O)NC2=NCCC2)c1 | inactive

SMILES | Potency
Cc1ccc(CSC2=Nc3ccccc3C3=NC(CCC(=O)NCc4cccs4)C(=O)N23)cc1 (stereo not given) | inconclusive: 56.2 µM [inhibitor, single point]
O=c1[nH][nH]c(=S)n1C1CCCCC1 | inconclusive: 100 µM [inhibitor, single point]
Cc1ccc(C(=O)OCc2cc(=O)n3nc(-c4cccs4)sc3n2)cc1 | inactive
CCOC(=O)c1ccc(Nc2nc3nonc3nc2Nc2cccc(C)c2C)cc1 | inconclusive: 89.1 µM [inhibitor, single point]
Nc1ccc2nc(-c3cc(Cl)c(N)c(Cl)c3)[nH]c2c1 | active: 50.1 µM
CCCCCCCC/C=C\CCCCCCCC(=O)NCc1ccc(O)c(OC)c1 | inconclusive: 21.2 µM [inhibitor, single point]
CN(c1ccc(C(=O)NCc2ccco2)cc1)S(C)(=O)=O | inactive
Cc1cccc(N2C(=O)c3cccc4c(N(C)CCO)ccc(c34)C2=O)c1 | inactive
O=C(NCc1ccco1)c1cccc2c1C(=O)c1ccc(/C=C/c3ccccc3)cc1S2(=O)=O | inconclusive: 39.8 µM [inhibitor, partial curve]
FC(F)(F)c1ccc(/C=N/n2c(COc3ccccc3)n[nH]c2=S)cc1 | inconclusive: 79.4 µM [inhibitor, partial curve, poor fit]
C[C@H](NS(=O)(=O)OCC(Cl)(Cl)Cl)C1CC1c1ccccc1 (stereo not given in full) | inconclusive: 56.2 µM [inhibitor, partial curve, poor fit]
Cc1ccc(NC(=O)CSc2nnc(-c3ccccn3)n2N)c(Br)c1 | inactive
O=C(Nc1cccnc1)Nc1ccc(Cl)cc1Cl | inconclusive: 100 µM [inhibitor, single point]
O=C(COC(=O)c1ccc(Br)o1)NC1CCCc2ccccc21 (stereo not given) | inactive
Cc1cccc(N2CCN(C(=O)CSc3ccc4c(c3)OCCO4)CC2)c1C | inconclusive: 44.7 µM [inhibitor, partial curve, poor fit]
CCOc1ccccc1N1CC(c2nc3ccccc3n2CCOc2ccc(C(C)(C)C)cc2)CC1=O (stereo not given) | inconclusive: 56.2 µM [inhibitor, partial curve, poor fit]
CCc1c(C)sc(NC(=O)CC#N)c1C#N | inconclusive: 56.2 µM [inhibitor, partial curve, poor fit]
CCN1/C(=C/c2sc(-c3ccccc3C)c[n+]2C)Sc2ccccc21 | inconclusive: 50.1 µM [inhibitor, partial curve]
COc1ccc2nc(NC(=O)c3cccc(OCc4c(C)noc4C)c3)sc2c1 | inconclusive: 12.6 µM [inhibitor, partial curve, poor fit]
S=c1[nH]nc(-c2ccccn2)n1/N=C/c1cccc2ccccc12 | inactive
CC1=NN(C(N)=S)C(=O)C1N=Nc1c(Br)cc(Br)cc1Br (stereo not given) | inactive
